# From the supplement of paper PMC8728848
# The list shows a part of the results.
# B1: Epa3to1 (Candida glabrata) (protein)
# chain: MGSSHHHHHHSSGLVPRGSHMKRELSSQNPFGYPIGCSPQDVAIIPGLTMELYSYPIVSGTPPNCYDASYVDPEYPRTGYLKRKMVGKSTGVTGNLNYKYSVEKACMVKYGNLPAGYNYNEPLTVSNFTMILYGYFKAQTTGLHTFFVNADDLLYINFGAGNAFDCCKREDSKTKLGEYVAYDIWHVDSSKNKVSLFLEKDLYYPIRMFFNNREYDSSLDLSFSVNGATDQISDFSGYLYSVPDQPDTCPAHIGYDTTCR
# Key:
# Assay in all cases: glycan array binding signal (z-score within array); higher = stronger binding
# Settings in all cases: glycan notation: IUPAC condensed, linker removed
# [1] = biological target: Neu5Ac(a2-3)Gal(b1-3)GalNAc
# In short: (§1)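 Negative Z-scores can be read as non-binding. The Z-score is calculated within each array and then averaged across arrays of one protein sequence at different concentrations or buffers and across linkers. Arrays, 3228 in all, were curated from the Consortium for Functional Glycomics database and kept only where the protein sequence was available.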
# [2] = biological target: Neu5Ac(a2-3)Gal(b1-3)GalNAc(b1-3)Gal(a1-4)Gal(b1-4)Glc
# In short: as §1
# [3] = biological target: Neu5Ac(a2-3)Gal(b1-3)GalNAc(b1-4)[Neu5Ac(a2-3)]Gal(b1-4)Glc
# In short: as §1
# [4] = biological target: Neu5Ac(a2-3)Gal(b1-3)GalNAc(b1-4)[Neu5Ac(a2-8)Neu5Ac(a2-3)]Gal(b1-4)Glc
# In short: as §1
# [5] = biological target: Neu5Ac(a2-3)Gal(b1-3)GalNAc6S
# In short: as §1
# [6] = biological target: Neu5Ac(a2-3)Gal(b1-3)GlcNAc
# In short: as §1
# [7] = biological target: Neu5Ac(a2-3)Gal(b1-3)GlcNAc(b1-2)Man
# In short: as §1
# [8] = biological target: Neu5Ac(a2-3)Gal(b1-3)GlcNAc(b1-2)Man(a1-3)[GlcNAc(b1-4)][Neu5Ac(a2-3)Gal(b1-3)GlcNAc(b1-2)Man(a1-6)]Man(b1-4)GlcNAc(b1-4)GlcNAc
# In short: as §1
# [9] = biological target: Neu5Ac(a2-3)Gal(b1-3)GlcNAc(b1-2)Man(a1-3)[Neu5Ac(a2-3)Gal(b1-3)GlcNAc(b1-2)Man(a1-6)]Man(b1-4)GlcNAc(b1-4)GlcNAc
# In short: as §1
# [10] = biological target: Neu5Ac(a2-3)Gal(b1-3)GlcNAc(b1-2)[Neu5Ac(a2-3)Gal(b1-3)GlcNAc(b1-4)]Man(a1-6)[Neu5Ac(a2-3)Gal(b1-3)GlcNAc(b1-2)Man(a1-3)]Man(b1-4)GlcNAc(b1-4)GlcNAc
# In short: as §1
# [11] = biological target: Neu5Ac(a2-3)Gal(b1-3)GlcNAc(b1-3)Gal(b1-3)GlcNAc
# In short: as §1
# [12] = biological target: Neu5Ac(a2-3)Gal(b1-3)GlcNAc(b1-3)Gal(b1-4)GlcNAc
# In short: as §1
# [13] = biological target: Neu5Ac(a2-3)Gal(b1-3)GlcNAc(b1-3)GalNAc
# In short: as §1
# [14] = biological target: Neu5Ac(a2-3)Gal(b1-3)GlcNAc(b1-4)Gal(b1-4)Glc
# In short: as §1
# [15] = biological target: Neu5Ac(a2-3)Gal(b1-3)GlcNAc(b1-6)GalNAc
# In short: as §1
# [16] = biological target: Neu5Ac(a2-3)Gal(b1-3)GlcNAc6S
# In short: as §1
# [17] = biological target: Neu5Ac(a2-3)Gal(b1-3)[Fuc(a1-4)]GlcNAc
# In short: as §1
# [18] = biological target: Neu5Ac(a2-3)Gal(b1-3)[Fuc(a1-4)]GlcNAc(b1-3)Gal(b1-3)[Fuc(a1-4)]GlcNAc
# In short: as §1
# [19] = biological target: Neu5Ac(a2-3)Gal(b1-3)[Fuc(a1-4)]GlcNAc(b1-3)Gal(b1-4)[Fuc(a1-3)]GlcNAc
# In short: as §1
# [20] = biological target: Neu5Ac(a2-3)Gal(b1-3)[GlcNAc(b1-6)]GalNAc
# In short: as §1
# [21] = biological target: Neu5Ac(a2-3)Gal(b1-3)[Neu5Ac(a2-6)]GalNAc
# In short: as §1
# [22] = biological target: Neu5Ac(a2-3)Gal(b1-3)[Neu5Ac(a2-6)]GlcNAc(b1-3)[Fuc(a1-3)[Gal(b1-4)]GlcNAc(b1-6)]Gal(b1-4)Glc
# In short: as §1
# [23] = biological target: Neu5Ac(a2-3)Gal(b1-3)]Neu5Ac(a2-3)Gal(b1-4)]GlcNAc
# In short: as §1
# [24] = biological target: Neu5Ac(a2-3)Gal(b1-4)Glc
# In short: as §1
# [25] = biological target: Neu5Ac(a2-3)Gal(b1-4)GlcNAc
# In short: as §1
# [26] = biological target: Neu5Ac(a2-3)Gal(b1-4)GlcNAc(b1-2)Man
# In short: as §1
# [27] = biological target: Neu5Ac(a2-3)Gal(b1-4)GlcNAc(b1-2)Man(a1-3)[GlcNAc(b1-4)][Neu5Ac(a2-3)Gal(b1-4)GlcNAc(b1-2)Man(a1-6)]Man(b1-4)GlcNAc(b1-4)GlcNAc
# In short: as §1
# [28] = biological target: Neu5Ac(a2-3)Gal(b1-4)GlcNAc(b1-2)Man(a1-3)[Neu5Ac(a2-3)Gal(b1-4)GlcNAc(b1-2)Man(a1-6)]Man(b1-4)GlcNAc(b1-4)GlcNAc
# In short: as §1
# [29] = biological target: Neu5Ac(a2-3)Gal(b1-4)GlcNAc(b1-2)Man(a1-3)[Neu5Ac(a2-3)Gal(b1-4)GlcNAc(b1-2)Man(a1-6)]Man(b1-4)GlcNAc(b1-4)[Fuc(a1-6)]GlcNAc
# In short: as §1
# [30] = biological target: Neu5Ac(a2-3)Gal(b1-4)GlcNAc(b1-2)Man(a1-3)[Neu5Ac(a2-6)Gal(b1-4)GlcNAc(b1-2)Man(a1-6)]Man(b1-4)GlcNAc(b1-4)GlcNAc
# In short: as §1
# [31] = biological target: Neu5Ac(a2-3)Gal(b1-4)GlcNAc(b1-2)[Neu5Ac(a2-3)Gal(b1-4)GlcNAc(b1-4)]Man(a1-3)[GlcNAc(b1-4)][Neu5Ac(a2-3)Gal(b1-4)GlcNAc(b1-2)[Neu5Ac(a2-3)Gal(b1-4)GlcNAc(b1-6)]Man(a1-6)]Man(b1-4)GlcNAc(b1-4)GlcNAc
# In short: as §1
# [32] = biological target: Neu5Ac(a2-3)Gal(b1-4)GlcNAc(b1-2)[Neu5Ac(a2-3)Gal(b1-4)GlcNAc(b1-4)]Man(a1-3)[GlcNAc(b1-4)][Neu5Ac(a2-3)Gal(b1-4)GlcNAc(b1-4)Man(a1-6)]Man(b1-4)GlcNAc(b1-4)GlcNAc
# In short: as §1
# [33] = biological target: Neu5Ac(a2-3)Gal(b1-4)GlcNAc(b1-2)[Neu5Ac(a2-3)Gal(b1-4)GlcNAc(b1-6)]Man(a1-6)[Neu5Ac(a2-3)Gal(b1-4)GlcNAc(b1-2)Man(a1-3)][GlcNAc(b1-4)]Man(b1-4)GlcNAc(b1-4)GlcNAc
# In short: as §1
# [34] = biological target: Neu5Ac(a2-3)Gal(b1-4)GlcNAc(b1-3)Gal
# In short: as §1
# [35] = biological target: Neu5Ac(a2-3)Gal(b1-4)GlcNAc(b1-3)Gal(b1-3)GlcNAc
# In short: as §1
# [36] = biological target: Neu5Ac(a2-3)Gal(b1-4)GlcNAc(b1-3)Gal(b1-4)GlcNAc
# In short: as §1
# [37] = biological target: Neu5Ac(a2-3)Gal(b1-4)GlcNAc(b1-3)Gal(b1-4)GlcNAc(b1-2)Man(a1-3)[Neu5Ac(a2-3)Gal(b1-4)GlcNAc(b1-3)Gal(b1-4)GlcNAc(b1-2)Man(a1-6)]Man(b1-4)GlcNAc(b1-4)GlcNAc
# In short: as §1
binder,measurement,setting,value
B1,glycan array binding signal (z-score),[1],-0.471
same,glycan array binding signal (z-score),[2],-0.018
same,glycan array binding signal (z-score),[3],-0.242
same,glycan array binding signal (z-score),[4],-0.947
same,glycan array binding signal (z-score),[5],0.371
same,glycan array binding signal (z-score),[6],-0.48
same,glycan array binding signal (z-score),[7],-0.709
same,glycan array binding signal (z-score),[8],0.21
same,glycan array binding signal (z-score),[9],-0.281
same,glycan array binding signal (z-score),[10],-0.331
same,glycan array binding signal (z-score),[11],-0.387
same,glycan array binding signal (z-score),[12],-0.602
same,glycan array binding signal (z-score),[13],-0.154
same,glycan array binding signal (z-score),[14],-0.243
same,glycan array binding signal (z-score),[15],0.393
same,glycan array binding signal (z-score),[16],0.05
same,glycan array binding signal (z-score),[17],-0.522
same,glycan array binding signal (z-score),[18],-0.253
same,glycan array binding signal (z-score),[19],-0.737
same,glycan array binding signal (z-score),[20],-0.452
same,glycan array binding signal (z-score),[21],-0.097
same,glycan array binding signal (z-score),[22],-0.441
same,glycan array binding signal (z-score),[23],-0.04
same,glycan array binding signal (z-score),[24],0.884
same,glycan array binding signal (z-score),[25],-1.12
same,glycan array binding signal (z-score),[26],0.054
same,glycan array binding signal (z-score),[27],-0.409
same,glycan array binding signal (z-score),[28],-0.109
same,glycan array binding signal (z-score),[29],-0.618
same,glycan array binding signal (z-score),[30],-0.365
same,glycan array binding signal (z-score),[31],-0.317
same,glycan array binding signal (z-score),[32],-0.072
same,glycan array binding signal (z-score),[33],-0.616
same,glycan array binding signal (z-score),[34],-0.337
same,glycan array binding signal (z-score),[35],-0.384
same,glycan array binding signal (z-score),[36],1.43
same,glycan array binding signal (z-score),[37],0.128
